Hit rate of the full screen: of about 310,000 compounds, about 11,000 (3.5%) were called active. This list was built around the results that the source calls inconclusive (neither active nor inactive); the mix of calls is not that of the screen. Calls come from the whole dose curve; as a rule, active = well fitted inhibition curve with a large enough effect; inconclusive = small, poorly fitted or top-dose-only effect, or effect the other way; inactive = flat fitted curve, though single readings scatter. No potency is given beside an inconclusive call; the fits are too rough.
assay: VP16 counterscreen qHTS for inhibitors of ROR gamma transcriptional activity; settings: Drosophila S2 Gal4-VP16 UAS-luciferase, luminescence, 20 h; series mostly up to 53.6 µM;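 note: Gal4-VP16 expression switched on by copper sulfate through the metallothionein promoter; nearly all actives have a fitted effect of over 50% in size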
Potency is the fitted concentration of half-maximal effect; tags give direction and shape of the fitted curve.

SMILES | Potency
O=C(COc1ccc(/C=N/NC(=O)c2ccc(O)cc2)cc1)Nc1cccc([N+](=O)[O-])c1 | inconclusive [inhibitor, partial curve]
CN(CCc1ccccn1)C(=S)Nc1ccc(Cl)cc1Cl | inconclusive [activator, full curve, poor fit]
CCn1nnc(NC(=O)c2ccc([N+](=O)[O-])o2)n1 | inconclusive [inhibitor, single point]
CCC(C)n1c(SCC(=O)Nc2ccccc2C(F)(F)F)nc2ccsc2c1=O (stereo unspecified) | inactive
COc1ccc(CCNc2nc(=S)[nH]c3cc(OC)c(OC)cc23)cc1OC | inconclusive [inhibitor, single point]
COc1ccc(Nc2nc(N)nc(CSC(=S)N3CCCCC3)n2)cc1 | inconclusive [activator, partial curve]
CC(C)CN(CC(C)C)S(=O)(=O)N1CCC(C(=O)NCc2ccco2)CC1 | inactive
O=C(N/N=C\C=C\c1ccc2c(c1)OCO2)C1COc2ccccc2O1 (stereo unspecified) | inconclusive [inhibitor, single point]
COc1ccc(NC(=O)c2cc(S(=O)(=O)N3CCOCC3)ccc2N2CCOCC2)cc1 | inactive
COc1ccc(N/C=C(/C(C)=O)c2ccccc2)cc1 | inconclusive [inhibitor, partial curve]
O=c1[nH]c(CSc2nnc(COc3ccccc3)n2-c2ccccc2)nc2ccccc12 | inconclusive [inhibitor, single point]
Cc1cccc(NC(=S)NNC(=O)CC(C)O)c1C (stereo unspecified) | inactive
O=C(Nc1cc2c(cc1Cl)OCCO2)c1ccco1 | inconclusive [activator, full curve]
COc1ccc(-c2nc3cnccn3c2Nc2ccc3c(c2)OCO3)cc1 | inconclusive [activator, single point]
Cc1[nH]c2ccccc2c1CCNC(=O)c1ccc2c(c1[N+](=O)[O-])C(=O)c1ccccc1C2=O | inconclusive [inhibitor, partial curve]
Cc1ccccc1Nc1nc(N)nc(COC(=O)CC2CC3CCC2C3)n1 (stereo unspecified) | inconclusive [activator, partial curve]
Cc1ccc(NC(=O)Nc2cc(S(C)(=O)=O)ccc2Cl)cc1 | inactive
COc1cccc(-c2nnc(NC(=O)c3cccc(F)c3)o2)c1 | active: 0.794 µM
CC(C)[C@H](NC(=O)c1ccco1)C(=O)OCC(=O)Nc1ccc(F)cc1 | inactive
COc1ccc(F)c(CN2CCCC(CNS(=O)(=O)c3cccc4cccnc34)C2)c1 (stereo unspecified) | inactive
CCC(=O)NC(=S)Nc1ccc(NC(=O)c2ccc(Br)o2)cc1 | inactive
COc1cc(/C=C2\CCC(C3CCCC3)C2=O)cc(OC)c1OC (stereo unspecified) | inactive
Cc1ccc(C(=O)c2coc3c2C(=O)C(=O)c2ccccc2-3)cc1 | inconclusive [inhibitor, single point]
N#CC1=C(S)N(c2ccccc2)C2(CCCCC2)NC1=O | inconclusive [inhibitor, single point]

SMILES | Potency
O=C(Cc1ccc(Cl)cc1Cl)Nc1ccc(OC(F)F)c(Cl)c1 | inconclusive [inhibitor, single point]
CCN1C(=O)c2cccc3c(S(=O)(=O)N(C(=O)c4cccnc4)c4ccc(OC)cc4)ccc1c23 | inconclusive [inhibitor, single point]
CCN1C(=S)N[C@@H](c2cccs2)C(C(=O)OC)=C1C | active: 20 µM
O=C(/C=C/c1ccco1)Nc1ccc2nn(-c3ccccc3)nc2c1 | inconclusive [inhibitor, single point]
O=C(CCN1CCN(c2ccc([N+](=O)[O-])cc2)CC1)c1ccc(Cl)cc1 | inconclusive [inhibitor, single point]
O=C(Nc1ccccc1N1CCCCC1)c1cccc([N+](=O)[O-])c1 | inactive
CC(C)(C)N1C(=O)[C@@H]2[C@H]3C(=CC[C@H]2C1=O)C(=O)[C@H]1O[C@H]1[C@H]3O | inconclusive [inhibitor, single point]
CC1CCN(S(=O)(=O)c2ccc(NC(=S)NC(=O)c3ccc(Cl)cc3)cc2)CC1 | active: 3.98 µM
O=c1cnc2cnc(Nc3ccccc3)nc2n1Cc1ccc(F)cc1 | inconclusive [inhibitor, single point]
Cc1ccc2nc(NC(=S)NC(=O)c3ccc(OC(C)C)cc3)sc2c1 | inconclusive [inhibitor, single point]
COc1cccc(-n2c(N)cc(=O)nc2SCC(=O)N2CCN(c3ccccc3)CC2)c1 | inactive
COC(=O)c1cc(NC(=O)c2cc(-c3ccc(Cl)cc3)oc2C(F)(F)F)ccc1N1CCOCC1 | inconclusive [inhibitor, single point]
Cc1cccn2cc(-c3ccc(NC(=O)Cc4ccccc4)cc3)nc12 | inconclusive [inhibitor, single point]
Cc1cccc(OCCNC(=O)c2ccc(Oc3ccc(C(F)(F)F)cc3[N+](=O)[O-])cc2)c1 | inactive
C#CCNC(=O)C1=C[C@H](c2ccc(C(F)(F)F)cc2)C[C@H](OCc2ccc(CO)cc2)O1 | inactive
CCOC(=O)Cc1cc(=O)n2[nH]cc(-c3ccc(Cl)cc3)c2n1 | inconclusive [inhibitor, single point]
COc1ccc(/C=C2\NC(=S)N(CC3CCCO3)C2=O)c(OC)c1C (stereo unspecified) | inconclusive [inhibitor, single point]
Cc1nc(Nc2ccccc2)sc1C(=O)c1ccccc1 | inconclusive [activator, single point]
Cc1ccc(NC(=S)N(CCCN2CCOCC2)Cc2cccs2)c(C)c1 | inconclusive [inhibitor, single point]
Cc1nnc(NC(=O)c2nc(S(=O)(=O)Cc3ccccc3)ncc2Cl)s1 | active: 12.6 µM
O=C1CN(C(=O)c2c(F)cccc2F)C(c2ccc(F)cc2)c2cc(Br)ccc2N1 (stereo unspecified) | inconclusive [inhibitor, single point]
Cc1ccc(-n2c(C)cc(C(=O)COC(=O)c3ccc[nH]c3=O)c2C)cc1C | active: 0.02 µM
CCCCC(CC)Cn1c(O)c(/C=C2\C=NN=C2c2ccccc2)sc1=S (stereo unspecified) | inconclusive [inhibitor, single point]
O=C(c1cc2cc3ccc(Cl)cc3nc2o1)N1CCCCCC1 | inconclusive [inhibitor, single point]

SMILES | Potency
O=C(CCCN1C(=O)/C(=C/c2cccs2)SC1=S)Nc1cccc(O)c1 | inconclusive [inhibitor, partial curve]
CSc1cccc(NC(=S)Nc2cc(C)ccc2C)c1 | inconclusive [inhibitor, single point]
CC(C)(C)c1ccc(NC(=O)COC(=O)C2(C)CC2(Cl)Cl)cc1 (stereo unspecified) | inconclusive [inhibitor, single point]
Cc1ccc(CSc2nnc(NC(=O)C3COc4ccccc4O3)s2)cc1 (stereo unspecified) | inconclusive [inhibitor, single point]
C/C(=N\NC(=S)Nc1c(C)cccc1C)c1ccc(OC(F)F)cc1 | active: 5.62 µM
O=S(=O)(Nc1ccc(Cc2ccncc2)cc1)c1ccc(Br)cc1 | inconclusive [inhibitor, single point]
O=C(Cc1cccs1)N/N=C/C=C\c1ccco1 | inconclusive [inhibitor, single point]
S=C(NCCCc1ccccc1)NCc1ccccc1 | active: 11.2 µM
Cc1cc(NC(=O)C2COc3ccccc3O2)no1 (stereo unspecified) | inactive
O=c1nc(NCc2ccco2)sc2ncccc12 | inactive
N=C1CCCN1CC(=O)c1ccc(Br)cc1 | inactive
CCN(c1ccccc1)S(=O)(=O)c1ccc(C(=O)Nc2ncccc2O)cc1 | inconclusive [inhibitor, single point]
COC(=O)C1CCN(C(=O)C2CCN(C(=O)[C@@H](NS(=O)(=O)c3ccc(C)cc3)C(C)C)CC2)CC1 | inconclusive [inhibitor, single point]
CC(=O)c1c(C)[nH]c(C(=O)Nc2nc(-c3ccc(Cl)cc3)cs2)c1C | inconclusive [inhibitor, partial curve]
CCOC(=O)Cn1nnc(-c2ccc([N+](=O)[O-])cc2)n1 | inactive
COCCn1c(C)cc(C(=O)COC(=O)C23CC4CC(CC(O)(C4)C2)C3)c1C | inconclusive [inhibitor, partial curve]
N#C/C(=C\c1ccc(N2CCOCC2)o1)c1ccccc1 | active: 20 µM
CCOC(=O)CN1C(=O)C(Sc2n[nH]c(-c3ccc(C)cc3)n2)CCc2ccccc21 (stereo unspecified) | inactive
COc1ccc(N(CC(=O)NCc2ccncc2)S(=O)(=O)c2ccccc2[N+](=O)[O-])c(OC)c1 | inactive
COc1ccccc1/C=C/C=N/n1c(-c2ccncc2)n[nH]c1=S | inconclusive [inhibitor, partial curve]
Cc1ccc(C(=O)CSc2ccccc2C(=O)O)cc1 | inconclusive [inhibitor, single point]
Cc1ccc(NC(=O)Nc2ccccc2)cc1[N+](=O)[O-] | inconclusive [activator, single point]
O=C(NC1CCCCC1)NC1C2CC3CC(C2)CC1C3 (stereo unspecified) | inactive

Source: PubChem BioAssay AID2546 (National Center for Advancing Translational Sciences (NCATS), 2010)
